Measured values taken from PMC4336329 (PLoS ONE, 2015).
The whole screen tested about 310,000 compounds, of which about 14,000 (4.5%) showed an effect of 50% or more. Effects have a minus sign here. The list shows a part of the results.

The molecules below were run against human ether-à-go-go-related gene (hERG) potassium channel (human, UniProt Q12809) (assay: primary screen, population patch clamp on CHO cells stably expressing hERG).
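Also: peak tail current of the secondary pulse compared with the same well before compound.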

human ether-à-go-go-related gene (hERG) potassium channel, sequence (Q12809 whole entry, looked up): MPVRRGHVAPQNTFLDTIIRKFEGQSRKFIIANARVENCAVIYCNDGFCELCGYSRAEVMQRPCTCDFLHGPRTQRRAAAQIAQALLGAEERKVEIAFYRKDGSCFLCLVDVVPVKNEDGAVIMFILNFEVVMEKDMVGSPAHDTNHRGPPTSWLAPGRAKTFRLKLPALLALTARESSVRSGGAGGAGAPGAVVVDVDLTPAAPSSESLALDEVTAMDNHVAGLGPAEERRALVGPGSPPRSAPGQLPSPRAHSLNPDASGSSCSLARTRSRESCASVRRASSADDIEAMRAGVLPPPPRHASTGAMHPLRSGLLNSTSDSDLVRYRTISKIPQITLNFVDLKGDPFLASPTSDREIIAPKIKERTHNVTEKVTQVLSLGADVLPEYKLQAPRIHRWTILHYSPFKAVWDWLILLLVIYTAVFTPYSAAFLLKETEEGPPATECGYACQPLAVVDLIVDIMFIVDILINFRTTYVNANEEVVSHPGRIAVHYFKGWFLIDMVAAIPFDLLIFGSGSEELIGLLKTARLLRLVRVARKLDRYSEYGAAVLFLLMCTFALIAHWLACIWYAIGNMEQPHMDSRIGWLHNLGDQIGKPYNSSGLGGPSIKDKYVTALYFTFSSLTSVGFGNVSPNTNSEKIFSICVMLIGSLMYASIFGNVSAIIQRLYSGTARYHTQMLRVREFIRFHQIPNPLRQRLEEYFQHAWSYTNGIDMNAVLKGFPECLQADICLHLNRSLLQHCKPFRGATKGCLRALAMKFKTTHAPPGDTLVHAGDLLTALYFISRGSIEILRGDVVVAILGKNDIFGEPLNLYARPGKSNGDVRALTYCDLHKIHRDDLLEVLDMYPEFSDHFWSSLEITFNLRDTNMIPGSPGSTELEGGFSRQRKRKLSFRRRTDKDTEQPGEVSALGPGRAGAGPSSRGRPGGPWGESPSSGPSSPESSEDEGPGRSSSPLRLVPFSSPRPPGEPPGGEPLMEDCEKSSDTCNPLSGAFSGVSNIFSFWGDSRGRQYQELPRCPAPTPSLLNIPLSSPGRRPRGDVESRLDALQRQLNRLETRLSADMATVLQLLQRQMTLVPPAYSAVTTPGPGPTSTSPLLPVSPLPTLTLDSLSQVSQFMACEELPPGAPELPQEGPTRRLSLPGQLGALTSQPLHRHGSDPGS

| Compound | hERG current change (%, negative = inhibition) at 10uM |
| --- | --- |
| CC(C)C[C@H](NC(=O)N1CCCCCC1)C(=O)O | 5.09% |
| Cn1nc(OCc2ccccc2)ccc1=O | -4.3% |
| O=C1CCCC2=C1C1(CCCCC1)N=C(Nc1nc3ccccc3s1)N2 | 8.68% |
| CC(=O)OCCn1c(C)[n+](CCOC(C)=O)c2cc(Cl)c(Cl)cc21.[I-] | 14.7% |
| Nc1cc(-c2ccccc2)ccc1O | 22.5% |
| c1coc(CNc2c3c(nc4ncnn24)CCCC3)c1 | -27.9% |
| COc1ccc(C(CC(=O)O)NC(=O)COc2ccccc2OC)cc1OC (stereo not shown) | 8.83% |
| CC(=O)c1cnc(Nc2nc(C)c3ccc(C)cc3n2)nc1C | 4.02% |
| Cc1ccn2c(=O)cc(C)nc2c1 | 24.5% |
| CC1CCN(C(=O)Cn2nnc(-c3ccccc3)n2)CC1 | 9.31% |
| CCOC(=O)c1sc(Nc2cccc(Cl)c2)nc1C | 2.03% |
| COc1ccc(CCNC(=O)/C=C/C(=O)O)cc1OC | 12.7% |
| CCn1c(SCC(=O)c2[nH]c(C)c(C(C)=O)c2C)nnc1-c1ccccc1 | -20.2% |
| COc1cc(CCC(=O)OCC(=O)Nc2ccc(C(N)=O)cc2)cc(OC)c1OC | 4.88% |
| Cn1c(=S)[nH]c2cccnc21 | 15.3% |
| CC(=O)Nc1ccc2sc(C)nc2c1 | -1.95% |
| COc1ccccc1/C=N/NC(=S)Nc1cccnc1 | 23.3% |
| Cc1cc(C(=O)CCC(=O)N(C)CC(=O)Nc2c(Cl)cccc2Cl)c(C)s1 | -3.96% |
| Cc1ccc(NC(=O)/C=C/c2ccc3c(c2)OCO3)nc1 | -0.304% |
| N#Cc1ccc(OCC(=O)Nc2cc(S(=O)(=O)N3CCCCC3)ccc2N2CCCCC2)cc1 | -13.3% |
| O=C(NCc1ccccc1)C(=O)NCC1OCCN1C(=O)c1cccs1 (stereo not shown) | -65.3% |
| CCS(=O)(=O)N1CCN(S(=O)(=O)c2ccc3ccccc3c2)CC1 | 16.2% |
| CC1(C)CC(NC(=S)NCc2ccco2)CC(C)(C)N1 | 18.9% |

| Compound | hERG current change (%, negative = inhibition) at 10uM |
| --- | --- |
| CSc1nn(CCc2ccncc2)c(=S)s1 | 8.17% |
| Cc1c(Cl)c([N+](=O)[O-])nn1CC(=O)NCC1CCCO1 (stereo not shown) | 27% |
| CCn1c(CCNC(=O)c2ccc(OC)c(OC)c2)nc2ccccc21 | -43.9% |
| CC(OC(=O)/C=C/c1ccc2ccccc2n1)C(=O)N(C)c1ccccc1 (stereo not shown) | 6.6% |
| CC(C)NC(=O)C1(S(=O)(=O)c2ccccc2)CC=CC1 | 0.292% |
| O=C(Cc1cccc(NC(=O)C2CCCN(C(=O)C3CCCCC3)C2)c1)Nc1cccc(C(=O)N2CCCC2)c1 (stereo not shown) | -36.8% |
| COc1ccccc1-n1c(-c2ccccc2)n[nH]c1=S | 23.3% |
| CCOC(=O)c1cnc(N)nc1C(F)(F)F | -0.475% |
| Cc1ccc2c(c1)N(C(=O)CCC(=O)NCc1ccccc1)CC(C)O2 (stereo not shown) | 2.08% |
| O=C(c1ccc(-c2ccccc2)cc1)N1CCN(c2ccccn2)CC1 | -36.4% |
| CC(=O)c1ccc(Nc2cc(C)nc3ccc(C)cc23)cc1 | -74.5% |
| CCOc1ccc(NC(=O)CN(C)C(=O)c2ccc(=O)[nH]c2)cc1OCC | 5.98% |
| Br.CCCCCCC1CC(CSC(=N)N)OC1=O (stereo not shown) | -52.1% |
| CCN(C1CCCCC1)S(=O)(=O)CCNC(=O)c1ccccc1 | -12% |
| COC(=O)c1ccc[n+](CC(=O)Nc2ccc(OC(F)F)cc2)c1.[Cl-] | -26% |
| O=C(/C=C/c1ccccc1)NC(=S)NNC(=O)Cc1cccs1 | 22.5% |
| Cc1csc(NC(=O)C2CCCCC2C(=O)O)n1 (stereo not shown) | 18.7% |
| CCCn1c2ccccc2c2cnn(CC(=O)NCCCOC)c(=O)c21 | -1.43% |
| CCCCN1C(Nc2ccccc2)=NC[C@@H]1Cc1ccccc1 | -66.1% |
| O=C(Nc1cccc(Cl)c1)c1ccc(OC(=S)N2CCOCC2)cc1 | 30% |
| COC(=O)[C@H](CC(C)C)NC(=O)N1CCCCC1C (stereo partly shown) | 9.52% |
| NC(=O)CSc1nccn1Cc1ccc(Cl)cc1 | 19.1% |
| Cc1nnc(NC(=O)CSc2nc3ccccc3[nH]2)s1 | 34.1% |

| Compound | hERG current change (%, negative = inhibition) at 10uM |
| --- | --- |
| COc1ccccc1C(=O)Nc1nc(-c2ccc(S(=O)(=O)N3CCOCC3)cc2)cs1 | 9.59% |
| CC(C)(C)OC(=O)CN1C(=O)NC(Cc2c[nH]c3ccccc23)C1=O (stereo not shown) | 12.8% |
| CC(CCc1ccccc1)NCC(O)c1cccc([N+](=O)[O-])c1.Cl (stereo not shown) | -56.2% |
| CCC(CC)C(=O)NCc1ccc2c(c1)cc(C)n2C | -8.89% |
| CC(=O)OC1CCC2(C)C(COc3ccc4ccc(=O)oc4c3)C(C)(O)CCC2C1(C)C (stereo not shown) | -29.4% |
| OC1(c2ccc(F)cc2)CCN(Cc2cccnc2)CC1 | 4.22% |
| CC(=O)N(Cc1ccccc1)Cc1cn(CCC#N)nc1-c1cccc([N+](=O)[O-])c1 | -33% |
| CC(C)(C)C1CCC(C(=O)Nc2nccs2)CC1 (stereo not shown) | 9.99% |
| Cc1cccc(N/N=C/c2ccc(O)c(O)c2O)c1 | 4.77% |
| COc1cccc(/C=C/C(=O)Nc2ccc3c(c2)OCCO3)c1OC | -3.49% |
| CC1(CCc2ccccc2)NC(=O)N(Cc2nnc(-c3ccccc3Br)o2)C1=O (stereo not shown) | -26% |
| CN(C)CCNC(=O)CCCNC(=O)Cn1cnc2sc3c(c2c1=O)CCCC3 | 4.71% |
| CCOC(=O)[C@H]1[C@H]2COc3cc(OC)ccc3[C@@H]2N2C(=O)CN(CCc3c[nH]c4ccccc34)C(=O)[C@@]12C | -1.64% |
| O=c1oc(-c2ccccc2)nc2c1cnn2-c1ccccc1 | 8.89% |
| Cc1nnc(SCC(=O)Nc2ccccc2F)n(N)c1=O | 5.7% |
| CSc1ccccc1C(=O)NC1CCCN(c2ccc(C(F)(F)F)cn2)C1 (stereo not shown) | -4.58% |
| CCOc1ncccc1C(=O)Nc1ccccc1F | 1.07% |
| Cc1ccc2oc(C(=O)N(C)CCC(O)c3ccccc3)c(C)c2c1 (stereo not shown) | 11.5% |
| O=C(NCc1ccc(F)cc1)C(c1ccc(F)cc1)N(C(=O)c1csnn1)C1CC1 (stereo not shown) | 9.3% |
| CCN(c1cccc(C)c1)S(=O)(=O)c1nnc(NC(=O)c2ccco2)s1 | 3.8% |
| Cc1cccn2c(=O)c(/C=C(\C#N)C(=O)NCc3ccco3)c(N3CCCCC3)nc12 | -37.8% |
| OCCSc1nc2ccccc2n1CCOc1ccccc1 | 4.02% |
| Cn1cnnc1SCC(=O)Nc1ccccc1C(=O)NC1CCCC1 | 11.8% |

| Compound | hERG current change (%, negative = inhibition) at 10uM |
| --- | --- |
| CC(=O)N1CCc2cc(S(=O)(=O)NC(CC(C)C)C(=O)N3CCCC3)ccc21 (stereo not shown) | -20.2% |
| Cc1ccc(S(=O)(=O)N2CCCCC2)cc1NC(=O)c1cc2ccccc2o1 | -7.85% |
| Cc1ccc(-n2c(CNc3ccc(F)cc3)nnc2SCC(=O)NCc2ccco2)cc1 | -40.8% |
| O=C(NCCS(=O)(=O)N1CCN(c2ccccc2)CC1)C1CC(=O)N(c2ccc(F)cc2)C1 (stereo not shown) | -1.02% |
| O=C(Nc1ccn(Cc2c(F)c(F)cc(F)c2F)n1)c1ccc(COc2cc(Cl)ccc2Cl)o1 | 6.83% |
| COCCCNC(=O)COc1ccc(Cl)c(C)c1 | -7.29% |
| O=C(OCC(=O)N1CCCC1)c1cc([N+](=O)[O-])ccc1Cl | 13.7% |
| O=C(Nc1ccc(C(=O)N2CCCC2)cc1)c1ccc2c(c1)OCO2 | -0.403% |
| CN(Cc1ccccc1)C(=O)c1nc2ccccn2c1CNCCCOc1cccnc1 | -52.3% |
| COc1ccc(Cn2cc(F)c(=O)n(C)c2=O)cc1[N+](=O)[O-] | 11.1% |
| CCCN(CC(=O)Nc1cc(Cl)ccc1Cl)C(=O)CN1C(=O)C2CCCCC2C1=O (stereo not shown) | -22.5% |
| COc1ccccc1NC(=O)/C=C1\SCC(=O)N1C | -21% |
| Cn1c(=O)c2c(nc(NCCNC(=O)c3ccco3)n2Cc2ccccc2F)n(C)c1=O | -1.1% |
| COc1ccc(NC(=O)C2CCN(S(=O)(=O)c3ccc4c(c3)NC(=O)CO4)CC2)cc1 | 18.4% |
| O=C(O)c1cc(/C=C/c2ccc(N3CCOCC3)cc2)nc2ccccc12 | 1.81% |
| COc1ccc(C(=O)N/C(=C\c2cccc3ccccc23)C(=O)NCCc2c[nH]c3ccccc23)cc1OC | 0.726% |
| CCOc1nc(-c2ccccc2)ccc1-c1noc(COC)n1 | 9.23% |
| COc1ccccc1C(=O)NC(CCSC)C(=O)NCc1ccccn1 (stereo not shown) | 0.0482% |
| CC1CC(=O)C2=C(C1)Nc1ccccc1N(C(=O)COc1ccccc1)C2c1ccco1 (stereo not shown) | -15.1% |
| COc1ccc(Cl)cc1C(=O)Nc1cccc(-c2ccc3nncn3n2)c1 | 4.13% |
| Cc1nn(Cc2ccccc2)c(C)c1NC(=O)CCCn1nc([N+](=O)[O-])cc1C | -9.35% |
| COc1ccccc1CN=C1Nc2ccccc2CS1 | -6.26% |
